# The supplement of paper PMC10037445
# Whole data set: some 2,900 compounds, median “NF-kB SEAP reporter activity, fold change vs agonist alone” near 0.99, cut for the highest 2% near 2.6. The list shows a part of the results.
# Tests used:
# RAW-Dual [1] = assay: NF-kB SEAP reporter activity, fold change vs agonist alone; higher = enhanced NF-kB activity; details: library stock concentration (final ~1000-fold dilution): 10 mM, cytotoxicity flag (confluency mask): not cytotoxic
# Procedure, shortened: (§1)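 RAW-Dual macrophages (50,000 cells/well in DMEM, 384-well plates) received 50 nL of library stock by pin tool, then a PRR agonist 1 h later, and were kept at 37 °C, 5% CO2. After 20 hours, supernatant was read for IRF by QuantiLuc luminescence and for NF-κB by QuantiBlue absorbance at 620 nm. Reporter activity is fold change over agonist-alone wells. Cytotoxic wells had IncuCyte confluency below 70% of agonist controls in both mask sets.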
# RAW-Dual [2] = assay: NF-kB SEAP reporter activity, fold change vs agonist alone; cytotoxicity flag (confluency mask): not cytotoxic; higher = enhanced NF-kB activity
# Procedure, shortened: as §1
# [3] = agonist: ODN 1826 (TLR9) 0.5 ug/mL
# [4] = agonist: Pam2CSK4 (TLR2/6) 0.1 ug/mL
# [5] = agonist: Pam3CSK4 (TLR2/1) 0.1 ug/mL
smiles,measurement,setting,value
CC(=O)c1cc([N+](=O)[O-])c(Sc2cccc(Cl)c2Cl)s1,NF-kB SEAP reporter activity,RAW-Dual [1]; agonist: Imiquimod (TLR7) […],0.915
same,NF-kB SEAP reporter activity,RAW-Dual [1]; agonist: MPLA (TLR4) […],0.955
CC(=O)c1cc([N+](=O)[O-])c(Sc2cccc(Cl)c2Cl)s1 (library stock concentration (final ~1000-fold dilution): 10 mM),NF-kB SEAP reporter activity,RAW-Dual [2]; agonist: LPS (TLR4) 0.1 ug/mL,1.05
same,NF-kB SEAP reporter activity,RAW-Dual [2]; [3],0.893
same,NF-kB SEAP reporter activity,RAW-Dual [2]; [4],0.867
same,NF-kB SEAP reporter activity,RAW-Dual [2]; [5],1.01
CNC(C)C(=O)NC(C(=O)N1CCCC1C(=O)NC(C(=O)NCCCCCCNC(=O)C(NC(=O)C1CCCN1C(=O)C(NC(=O)C(C)NC)C1CCCCC1)C(c1ccccc1)c1ccccc1)C(c1ccccc1)c1ccccc1)C1CCCCC1 (configuration not stated),NF-kB SEAP reporter activity,RAW-Dual [1]; agonist: Imiquimod (TLR7) […],1.2
same,NF-kB SEAP reporter activity,RAW-Dual [1]; agonist: MPLA (TLR4) […],0.986
CNC(C)C(=O)NC(C(=O)N1CCCC1C(=O)NC(C(=O)NCCCCCCNC(=O)C(NC(=O)C1CCCN1C(=O)C(NC(=O)C(C)NC)C1CCCCC1)C(c1ccccc1)c1ccccc1)C(c1ccccc1)c1ccccc1)C1CCCCC1 (configuration not stated) (library stock concentration (final ~1000-fold dilution): 10 mM),NF-kB SEAP reporter activity,RAW-Dual [2]; agonist: LPS (TLR4) 0.1 ug/mL,0.851
same,NF-kB SEAP reporter activity,RAW-Dual [2]; [3],1.01
same,NF-kB SEAP reporter activity,RAW-Dual [2]; [4],0.893
same,NF-kB SEAP reporter activity,RAW-Dual [2]; [5],0.89
COC(=O)C(CC(C)C)NC(=O)c1ccc(NCC(N)CS)cc1-c1cccc2ccccc12.O=C(O)C(F)(F)F (configuration not stated) (library stock concentration (final ~1000-fold dilution): 10 mM),NF-kB SEAP reporter activity,RAW-Dual [2]; agonist: LPS (TLR4) 0.1 ug/mL,3.82
same,NF-kB SEAP reporter activity,RAW-Dual [2]; [3],2.38
same,NF-kB SEAP reporter activity,RAW-Dual [2]; [4],1.5
same,NF-kB SEAP reporter activity,RAW-Dual [2]; [5],2.19
COC(=O)C(CC(C)C)NC(=O)c1ccc(NCC(N)CS)cc1-c1cccc2ccccc12.O=C(O)C(F)(F)F (configuration not stated),NF-kB SEAP reporter activity,RAW-Dual [1]; agonist: Imiquimod (TLR7) […],1.25
same,NF-kB SEAP reporter activity,RAW-Dual [1]; agonist: MPLA (TLR4) […],2.31
Cc1ccc(/C(=C\CN2CCCC2)c2cccc(/C=C/C(=O)O)n2)cc1,NF-kB SEAP reporter activity,RAW-Dual [1]; agonist: Imiquimod (TLR7) […],1.02
same,NF-kB SEAP reporter activity,RAW-Dual [1]; agonist: MPLA (TLR4) […],1.02
Cc1ccc(/C(=C\CN2CCCC2)c2cccc(/C=C/C(=O)O)n2)cc1 (library stock concentration (final ~1000-fold dilution): 10 mM),NF-kB SEAP reporter activity,RAW-Dual [2]; agonist: LPS (TLR4) 0.1 ug/mL,1.28
same,NF-kB SEAP reporter activity,RAW-Dual [2]; [3],1.04
same,NF-kB SEAP reporter activity,RAW-Dual [2]; [4],0.928
same,NF-kB SEAP reporter activity,RAW-Dual [2]; [5],0.913
O=C(OC1OC2COC(=O)c3cc(O)c(O)c(O)c3-c3c(cc(O)c(O)c3O)C(=O)OC(C2O)C1O)c1cc(O)c(O)c(O)c1 (configuration not stated) (library stock concentration (final ~1000-fold dilution): 10 mM),NF-kB SEAP reporter activity,RAW-Dual [2]; agonist: LPS (TLR4) 0.1 ug/mL,1.34
same,NF-kB SEAP reporter activity,RAW-Dual [2]; [3],0.874
same,NF-kB SEAP reporter activity,RAW-Dual [2]; [4],0.809
same,NF-kB SEAP reporter activity,RAW-Dual [2]; [5],0.393
O=C(OC1OC2COC(=O)c3cc(O)c(O)c(O)c3-c3c(cc(O)c(O)c3O)C(=O)OC(C2O)C1O)c1cc(O)c(O)c(O)c1 (configuration not stated),NF-kB SEAP reporter activity,RAW-Dual [1]; agonist: Imiquimod (TLR7) […],0.783
same,NF-kB SEAP reporter activity,RAW-Dual [1]; agonist: MPLA (TLR4) […],1.08
O=Cc1ccc(O)c(O)c1,NF-kB SEAP reporter activity,RAW-Dual [1]; agonist: Imiquimod (TLR7) […],0.702
same,NF-kB SEAP reporter activity,RAW-Dual [1]; agonist: MPLA (TLR4) […],1.09
O=Cc1ccc(O)c(O)c1 (library stock concentration (final ~1000-fold dilution): 10 mM),NF-kB SEAP reporter activity,RAW-Dual [2]; agonist: LPS (TLR4) 0.1 ug/mL,0.968
same,NF-kB SEAP reporter activity,RAW-Dual [2]; [3],0.76
same,NF-kB SEAP reporter activity,RAW-Dual [2]; [4],0.663
same,NF-kB SEAP reporter activity,RAW-Dual [2]; [5],0.652
COc1cc2ncc(-c3ccccc3)nc2cc1OC,NF-kB SEAP reporter activity,RAW-Dual [1]; agonist: Imiquimod (TLR7) […],1.16
same,NF-kB SEAP reporter activity,RAW-Dual [1]; agonist: MPLA (TLR4) […],1.39
COc1cc2ncc(-c3ccccc3)nc2cc1OC (library stock concentration (final ~1000-fold dilution): 10 mM),NF-kB SEAP reporter activity,RAW-Dual [2]; agonist: LPS (TLR4) 0.1 ug/mL,1.78
same,NF-kB SEAP reporter activity,RAW-Dual [2]; [3],1.28
same,NF-kB SEAP reporter activity,RAW-Dual [2]; [4],0.915
same,NF-kB SEAP reporter activity,RAW-Dual [2]; [5],0.864
